# Reference: the supplement of paper PMC3334620
# Whole data set: some 33,000 sequences, median “E-score (-0.5 to 0.5)” near -0.054, cut for the highest 2% near 0.39. The list shows a part of the results.
# Target: Ylr278c (UniProt Q05854)
# Assay: PBM E-score (8-mer binding enrichment) (E-score (-0.5 to 0.5)); higher = stronger / more preferred TF binding; most listed sequences are background and not binding sites
# Conditions: protein concentration: 200 nM; construct: GST-DNA-binding domain
# Method in brief: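 For each ungapped eight-base word taken together with its reverse complement, the Universal PBM Analysis Suite assigned an E-score. Binding data came from GST-tagged yeast transcription factors, applied at about 100-200 nM, on universal all-10-mer Agilent arrays made double-stranded by primer extension. Fluorescent anti-GST marked bound protein, and scans were normalised with masliner.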
row,Sequence,PBM E-score
1,ACACACGC,0.0421
2,AACCGTGA,-0.0334
3,GAGACCTC,-0.0742
4,CACGGTGA,0.0314
5,CTCGGCGC,0.253
6,ACGCAATG,-0.175
7,CGGCCATA,-0.0205
8,CGCCATAG,-0.135
9,ATAGCACC,-0.0166
10,AGGTCTTA,-0.211
11,ATGTAAAG,-0.0899
12,CAGCATAG,-0.147
13,CAGAGTCG,-0.0745
14,AATAGAGG,-0.0471
15,CCGCCGAG,0.355
16,ATCTTACG,0.0571
17,AAGTTTGG,-0.00617
18,CGACAACG,0.102
19,AACTGCGG,0.329
20,ATTAACGA,0.0895
21,GACAGACA,0.166
22,AACATGTC,0.0207
23,CTGGAGGC,-0.095
24,AGTTTATC,0.0456
25,CTTTGCCA,-0.0989

row,Sequence,PBM E-score
1,ATTGCGGC,0.146
2,ATTATCTG,-0.0478
3,ACCGCAAA,0.0525
4,ATTCGGGA,0.207
5,CCATCGTA,-0.175
6,CCCGGGAA,0.348
7,AATTCTTA,-0.104
8,CATTGACG,-0.0686
9,CCGTAGCA,0.0425
10,GAACGAAA,-0.109
11,AGGTTAAC,-0.0568
12,CCAGTGGG,-0.0812
13,GGTACTTA,-0.00682
14,ATAGAGTC,-0.0754
15,ACCTTTGC,-0.0998
16,CCGTCCGA,0.345
17,ACACGTCC,-0.0504
18,AAGATCGC,-0.105
19,CCGGGAAG,0.334
20,AGAGTATG,-0.0782
21,CGATACAG,0.0562
22,CCAATTTC,0.186
23,AAATCGCT,0.0357
24,CAGTAGCC,-0.118
25,ATGGACAG,-0.0876

row,Sequence,PBM E-score
1,ATATCTCC,0.375
2,GTGAAGAA,-0.0132
3,AGGTGCAA,-0.134
4,GTCGAGAA,-0.164
5,GGAAATCA,0.125
6,CCCCAAAG,-0.254
7,CAACGAAG,-0.206
8,AAGGCCAG,-0.129
9,AGCGTACT,-0.155
10,CTACCAAG,-0.194
11,ATATGTTG,-0.0904
12,AGGGCGGG,0.228
13,AGACCAAT,-0.0851
14,TACTTGAA,-0.214
15,GCAGTACA,-0.148
16,GGATTACA,0.0913
17,ACACACAC,-0.177
18,CGAGAATA,0.0398
19,CATCGGCA,0.284
20,CATCTTGG,-0.113
21,AGTGATAT,-0.13
22,CGAAGTAC,0.104
23,GAAGGGGC,-0.115
24,TGAGAACA,-0.211
25,ATCCGCTC,0.307

row,Sequence,PBM E-score
1,AAACGCGA,-0.0617
2,GTCGCGTA,-0.0688
3,ATCGCCAT,-0.0309
4,ACTTATAG,-0.101
5,AAGCGAGT,0.0967
6,ATTAAAAG,-0.0816
7,ATAAAGAC,-0.109
8,ACCCCCAC,-0.25
9,TAAGGGGA,-0.0498
10,ATAACAAT,-0.0127
11,ATCATCGG,0.344
12,AGAGTCAT,-0.305
13,GCGCGTTA,0.137
14,AGCGTCAA,-0.115
15,ATTGACGC,-0.165
16,ACTTCGAA,-0.334
17,CAGTATCC,0.00965
18,CGGATAAC,0.369
19,GAACCGAC,0.157
20,GGGCGCAC,-0.0472
21,CTCCCTAC,-0.203
22,CGTGGTCA,-0.247
23,ATAAAATG,-0.0348
24,ACTCTGGC,-0.0437
25,AATATTAC,0.0239

row,Sequence,PBM E-score
1,AAGGACCA,-0.0395
2,ATATCGCA,-0.119
3,AGCGGGAT,0.168
4,ATTTCATG,-0.149
5,GATATGGC,0.0414
6,CCGGGAGG,0.261
7,CGAAATGA,0.127
8,CAGAAGGC,-0.118
9,CTGTTGGA,-0.194
10,AGACAGAA,-0.0904
11,ATTGAGTA,-0.0986
12,GGAGACTA,0.0463
13,ACAGATGG,-0.0742
14,AGGATGAC,-0.284
15,ATGGTCGA,-0.26
16,ACACGTGT,-0.331
17,GGAAGAGA,0.0892
18,CCGCCAGC,0.206
19,GAACGTCA,-0.231
20,CGGTATTA,0.27
21,CCCCGCTC,0.184
22,ACGGTCCA,-0.0988
23,CGATCAAC,-0.0846
24,GCTATATA,-0.166
25,TACACTAA,-0.212

row,Sequence,PBM E-score
1,ACATCACG,-0.125
2,ACCGCCCC,0.122
3,ATGAGATG,-0.114
4,AGCTTAAG,-0.229
5,AAAGAGCC,-0.152
6,ATGGCCTG,-0.135
7,CTTTGCTC,-0.0097
8,TAGCTGAA,-0.0659
9,GTCTGCAC,-0.0621
10,AACTAGGC,-0.27
11,CGCTTCCG,0.314
12,AGTTCCCG,0.237
13,AGCAAGAA,-0.166
14,CAGTCCTA,-0.265
15,CAGCGATG,-0.123
16,GAGCCAAC,-0.101
17,GAGTTGAC,0.0611
18,ACCGGACT,0.443
19,CATCAGAA,-0.271
20,GAAACCCC,0.25
21,AGGGCTGC,-0.0949
22,GGGTTTGA,0.0228
23,ATTTCGGA,0.45
24,GTGTGTCA,-0.177
25,GGACACGA,0.0337

row,Sequence,PBM E-score
1,GTTTATCA,0.0561
2,ACGAGTTG,-0.176
3,ACGCGTTA,-0.0656
4,GGAATGCA,0.163
5,AGAGACTG,-0.237
6,AGTTAGAT,-0.233
7,ATCACCGC,0.118
8,ACCGAGCA,0.181
9,ACTCGCCA,-0.0616
10,AACCTCGG,0.261
11,GGTTAGAC,-0.0628
12,CTTAGAAA,-0.145
13,CTGGATAC,-0.109
14,CTGCTCGC,-0.0426
15,CGCGCGGA,0.398
16,CTCGCCTC,-0.0537
17,ATTCTGCC,0.116
18,CAGAGACC,-0.231
19,AATAGAAG,-0.108
20,TAGCAGGA,0.00951
21,AAGTTCTG,-0.188
22,GGGCGAAA,0.0355
23,GGCCCTTA,-0.186
24,ACGTAATA,-0.252
25,AGGGTTCC,0.124

row,Sequence,PBM E-score
1,CCGGCGAC,0.346
2,ACAATAAC,-0.00208
3,GCAACTCA,0.00855
4,CTACCCAG,-0.26
5,CCGCATCC,0.204
6,TAGCCTGA,-0.19
7,CTGAAGCA,-0.322
8,ACAAAAGG,0.0804
9,ATTATAGA,-0.139
10,CACTTAGG,-0.125
11,CGGTTACG,0.182
12,CTCTTCGC,0.0532
13,CAGGGGAG,-0.0961
14,ACTTGCCA,-0.204
15,CTCATAGC,-0.335
16,AGGGGGAT,-0.112
17,GAATTTTA,0.117
18,ATGTGAGG,-0.193
19,ACTAGAAC,0.0671
20,ATTTATTC,0.0865
21,GGTACATA,0.196
22,GATCGATA,-0.106
23,CCACAGAA,-0.173
24,GAAAACGC,-0.0904
25,ATTGGGTA,-0.276

row,Sequence,PBM E-score
1,AATCGCAC,-0.132
2,AACACGAT,0.0975
3,CTCGATGC,-0.162
4,GGCTACTA,-0.0113
5,ACGATCAT,-0.172
6,GGTACGAC,-0.154
7,CATCCCAA,-0.218
8,CAGACAGA,-0.223
9,GCCGAGAC,0.139
10,CACTCCGC,0.393
11,GCACTCCA,-0.071
12,ACTTTCAG,-0.0697
13,CATATCTC,0.0114
14,AAGTACGT,-0.112
15,CGGGATCA,0.193
16,ATCGCTTG,-0.321
17,AGCCCAAT,-0.15
18,CCTTTGTA,-0.23
19,CCACTGGG,-0.149
